{
  "source": "PubChem BioAssay AID686979",
  "about": "(National Center for Advancing Translational Sciences (NCATS), 2013)",
  "note": "Several values for one entry are separate records, joined by “and”; a condition that tells them apart may be missing. Equal values may be shown once. The whole screen tested about 420,000 compounds, of which about 50,000 (12%) were called active. Inconclusive means that the source gave no clear call. Such entries were picked first, then a sample of the others. The call rests on the fitted dose curve; in most records, active means well fitted inhibition curve with a large enough effect; inconclusive means small, poorly fitted or top-dose-only effect; inactive means flat fitted curve, though single readings scatter. Potencies of inconclusive entries are doubtful fits and often do not repeat. On the % scale 0 is the no-effect control and ±100 the full control effect; potency means the concentration at half of the fitted maximal effect; tags describe the fitted curve by direction and shape.",
  "data": [
    {"experiment": "qHTS for Inhibitors of human tyrosyl-DNA phosphodiesterase 1 (TDP1): qHTS in cells in presence of CPT; further: nearly all actives have a fitted effect of over 55% in size", "details": "chicken DT40 Tdp1-/-;hTDP1 cells + 20 nM CPT, ATP luminescence, 48 h; activity change, negative = growth inhibition: at 46.2 µM (top of the series)", "procedure,_shortened": "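Chicken DT40 Tdp1-/- cells complemented with human TDP1, 400 cells/well, exposed to compounds plus 20 nM camptothecin for at least 48 h at 37 C; viability read as ATP content by CellTiter-Glo luminescence.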", "values": [
      {"smiles": "COc1cccc(NC(=O)C2CCN(c3nnc(-n4c(C)ccc4C)s3)CC2)c1", "Potency": "inconclusive: 29.1 µM [inhibitor, single point]"},
      {"smiles": "COc1cccc(CN2CCCN(S(=O)(=O)c3ccc(Br)cc3)CC2)c1", "Potency": "inconclusive: 29.1 µM [inhibitor, single point]"},
      {"smiles": "O=C(Nc1cccc(-c2cnc3ccccc3n2)c1)c1ccco1", "Potency": "inconclusive: 16.4 µM [inhibitor, single point]"},
      {"smiles": "Cc1ccc(OCCC(=O)OCC(=O)c2c(N)n(CC(C)C)c(=O)n(C)c2=O)cc1", "Potency": "inconclusive: 18.4 µM [inhibitor, single point]"},
      {"smiles": "Cc1cccc(OCCSc2ncnc3nc[nH]c23)c1", "Potency": "inconclusive: 8.2 µM [inhibitor, partial curve]"},
      {"smiles": "COc1ccc(NC2CCCN(C(=O)c3cc(CC(C)C)nc(N)n3)C2)cc1", "note": "(stereo unspecified)", "activity change, negative = growth inhibition": "inactive: -23.3%"},
      {"smiles": "CCCc1cc(=O)[nH]c(SCC(=O)NC(=O)NC2CCCC2)n1", "Potency": "inconclusive: 20.6 µM [inhibitor, single point]"},
      {"smiles": "CCC(C)NCCOCCOc1ccc(Br)cc1C", "note": "(stereo unspecified)", "Potency": "active: 14.6 µM"},
      {"smiles": "CCOC(=O)c1c(NC(=S)Nc2ccc(C)cc2)sc2c1CCC2", "Potency": "inconclusive: 29.1 µM [inhibitor, single point]"},
      {"smiles": "COCc1ccc(C(=O)N2CCCC(C(=O)c3ccc(SC)cc3)C2)s1", "note": "(stereo unspecified)", "Potency": "inconclusive: 29.1 µM [inhibitor, single point]"},
      {"smiles": "CCOC(=O)N1CCN(S(=O)(=O)c2cccc3nonc23)CC1", "activity change, negative = growth inhibition": "inactive: -5.83%"},
      {"smiles": "CC(=NCc1ccco1)c1c(C(F)(F)F)[nH]n(-c2nc3ccccc3s2)c1=O", "Potency": "inconclusive: 29.1 µM [inhibitor, single point]"},
      {"smiles": "Cc1ccc2nc(NC(=O)C3CCN(S(=O)(=O)c4cc([N+](=O)[O-])ccc4Cl)CC3)sc2c1", "Potency": "active: 9.2 µM"},
      {"smiles": "CC1=C(C(=O)Nc2cccc(C(F)(F)F)c2)C2(CCN(C(C)C)CC2)OC1=O", "activity change, negative = growth inhibition": "inactive: -14.7%"},
      {"smiles": "CN(C)c1ncc2nc(-c3ccc(Cl)cc3)c(=O)n(Cc3cccs3)c2n1", "activity change, negative = growth inhibition": "inactive: 0.605%"},
      {"smiles": "CCN(CC)CCNC(=O)c1ccc2c(=O)n3nc(Nc4ccccc4)sc3nc2c1", "Potency": "active: 5.8 µM"},
      {"smiles": "COC(=O)c1ccc(-n2cncn2)c([N+](=O)[O-])c1", "activity change, negative = growth inhibition": "inactive: -20%"},
      {"smiles": "CN1CCN(c2ccnc(-c3ccc(N(C)C)cc3)n2)CC1", "Potency": "active: 23.1 µM"},
      {"smiles": "COC(=O)N/N=C/c1ccc(-c2ccc(Cl)c(Cl)c2)o1", "Potency": "inconclusive: 29.1 µM [inhibitor, single point]"},
      {"smiles": "O=C(O)c1cccc(N2C(=O)CSC2c2ccccc2)c1", "note": "(stereo unspecified)", "activity change, negative = growth inhibition": "inactive: -7.47%"},
      {"smiles": "CC(C)NC(=S)N=Nc1c(O)[nH]c2ccc(C(C)C)cc12", "Potency": "active: 5.8 µM"},
      {"smiles": "CCc1cc(Cn2nc(-c3ccccc3)cc2C(=O)NCC2CC2)on1", "Potency": "inconclusive: 29.1 µM [inhibitor, single point]"},
      {"smiles": "CC(C)c1ccc(NC(=O)/C(C#N)=C/c2ccncc2)cc1", "Potency": "inconclusive: 16.4 µM [inhibitor, single point]"},
      {"smiles": "C=CCn1c(CCNC(=O)c2cccs2)nnc1SCC(=O)c1ccc(Cl)cc1", "Potency": "inconclusive: 15.8 µM [inhibitor, single point]"},
      {"smiles": "CC(C)(C)c1ccc(C(=O)Nc2ccc(C(=O)NCc3cccnc3)cc2)cc1", "Potency": "active: 2.59 µM"},
      {"smiles": "Cc1csc(NC(CO)c2nc3ccccc3n2CCOCCO)n1", "note": "(stereo unspecified)", "activity change, negative = growth inhibition": "inactive: -9.6%"},
      {"smiles": "COc1ccc(Cn2nc(C)n(N(C)c3ncc(C(F)(F)F)cc3Cl)c2=O)cc1", "Potency": "active: 16.4 µM"},
      {"smiles": "Cc1ccc(P(=O)(CO)c2ccc(C)cc2)cc1", "activity change, negative = growth inhibition": "inactive: 2.54%"},
      {"smiles": "COc1ccc(CCNc2cc(C)nc3c(-c4ccccc4)cnn23)cc1OC", "Potency": "inconclusive: 23.1 µM [inhibitor, single point]"},
      {"smiles": "CCc1nc(SCC(=O)c2ccc3c(c2)OCCO3)c2ccccc2n1", "Potency": "inconclusive: 16.4 µM [inhibitor, single point]"},
      {"smiles": "C[C@H](CO)N1C[C@H](C)[C@@H](CN(C)Cc2ccccn2)Oc2ncc(-c3ccccc3)cc2C1=O", "activity change, negative = growth inhibition": "inactive: 4.29%"},
      {"smiles": "Cc1ccc(Nc2cc(C)nc3c(C)cccc23)cc1", "Potency": "inconclusive: 25.9 µM [inhibitor, single point]"},
      {"smiles": "CCOc1cc(C2C(C(=O)OC)=C(C)NC3=C2C(=O)c2ccccc23)cc(Br)c1OCC", "note": "(stereo unspecified)", "Potency": "inconclusive: 14.6 µM [inhibitor, single point]"},
      {"smiles": "COc1ccc(/C=C/C(=O)Nc2cccc(S(=O)(=O)N3CCCC3)c2)cc1OC", "Potency": "inconclusive: 20.6 µM [inhibitor, single point]"},
      {"smiles": "CC(=O)NC(=S)Nc1ccc(NC(=O)COc2ccc(Cl)cc2Cl)cc1", "Potency": "inconclusive: 2.31 µM [inhibitor, full curve, poor fit]"},
      {"smiles": "CCC1Sc2ccc(S(=O)(=O)CCC(=O)NCc3cccs3)cc2NC1=O", "note": "(stereo unspecified)", "Potency": "inconclusive: 20.6 µM [inhibitor, single point]"},
      {"smiles": "COc1ccc(Cl)cc1C(=O)NCc1nc(-c2cccc(C)c2)no1", "Potency": "inconclusive: 32.6 µM [inhibitor, single point]"},
      {"smiles": "Cc1nc2c(nnn2Cc2ccccc2)c(=O)[nH]1", "Potency": "active: 23.1 µM"},
      {"smiles": "CC1=C(C(=O)OC2CCCCCC2)C(c2ccc(Cl)cc2)CC(=O)N1", "note": "(stereo unspecified)", "Potency": "inconclusive: 29.1 µM [inhibitor, single point]"},
      {"smiles": "Cc1ccc2[nH]c(C)c(CCN(Cc3cccnc3)C(=S)NC(C)(C)C)c2c1", "Potency": "inconclusive: 20.6 µM [inhibitor, single point]"},
      {"smiles": "O=C(NCCc1ccccc1)C1CCN(c2ncccn2)CC1", "activity change, negative = growth inhibition": "inconclusive: -37.2% [inhibitor]"},
      {"smiles": "O=C(c1cnn2c(C(F)(F)F)cc(-c3cccs3)nc12)N1CCN(Cc2ccccc2)CC1", "Potency": "inconclusive: 23.1 µM [inhibitor, single point]"},
      {"smiles": "CC(C)(C)c1ccc(C(=O)NCC(=O)O)cc1", "activity change, negative = growth inhibition": "inactive: 13.2%"},
      {"smiles": "O=C(Cc1c(F)cccc1Cl)Nc1nc2ccccc2s1", "Potency": "inconclusive: 29.1 µM [inhibitor, single point]"},
      {"smiles": "CCCCCc1ccc(CC(=O)N2CCOCC2)cc1", "Potency": "inconclusive: 29.1 µM [inhibitor, single point]"},
      {"smiles": "OCCN1CCN(CCCN2c3ccccc3CCc3ccccc32)CC1", "Potency": "inconclusive: 29.1 µM [inhibitor, single point]"},
      {"smiles": "O=C(NCC(=O)N1CCN(Cc2ccccc2)CC1)c1ccc(Br)cc1", "Potency": "inconclusive: 16.4 µM [inhibitor, partial curve]"},
      {"smiles": "Cc1cc(C)cc(C(O)c2ncc(-c3ccc(F)cc3)[nH]2)c1", "note": "(stereo unspecified)", "Potency": "inconclusive: 13 µM [inhibitor, partial curve]"},
      {"smiles": "O=[N+]([O-])c1ccccc1SNc1ccc(Br)cn1", "activity change, negative = growth inhibition": "inactive: -21.6%"},
      {"smiles": "CN1CCN(S(=O)(=O)c2ccc(Sc3nnc(-c4cccs4)n3-c3ccccc3)nc2)CC1", "Potency": "inconclusive: 29.1 µM [inhibitor, single point]"},
      {"smiles": "CC(C)N1CCC1(C)C(=O)Nc1ccc(-n2cccc2)cc1", "note": "(stereo unspecified)", "Potency": "active: 14.6 µM"},
      {"smiles": "COc1ccc2[nH]c(=O)c(CN(C(=O)c3ccncc3)C(C)(C)C)cc2c1", "activity change, negative = growth inhibition": "inactive: -5.8%"},
      {"smiles": "COc1ccc(Cn2c(CCC(=O)Nc3ccccc3OC)nc3cccnc32)cc1", "Potency": "inactive and inconclusive: 18.4 µM [inhibitor, single point]"},
      {"smiles": "COc1ccccc1NC(=O)CSc1nc2sc(C)c(C)c2c(=O)n1Cc1ccco1", "Potency": "inconclusive: 11.6 µM [inhibitor, partial curve]"},
      {"smiles": "COc1ccccc1CN1[C@@H](CC(=O)O)c2ccccc2S1(=O)=O", "Potency": "inactive and inconclusive: 11.2 µM [inhibitor, single point]"},
      {"smiles": "Cc1ccc2nc(-c3ccco3)c(Nc3ccc4c(c3)OCCO4)n2c1", "Potency": "active: 16.4 µM"},
      {"smiles": "CCOC(=O)C1=CN(Cc2cccc(-c3cccnc3)c2)S(=O)(=O)N(CC)C1C", "note": "(stereo unspecified)", "Potency": "inconclusive: 18.4 µM [inhibitor, single point]"},
      {"smiles": "Cc1ccc(CN2CC(C(=O)N3CCN(c4ccccc4Cl)CC3)CC2=O)cc1", "note": "(stereo unspecified)", "Potency": "inconclusive: 25.9 µM [inhibitor, single point]"},
      {"smiles": "O=C(CCS(=O)(=O)c1ccccc1)Nc1ccc(S(=O)(=O)Nc2nccs2)cc1", "activity change, negative = growth inhibition": "inactive: 16.8%"},
      {"smiles": "Cc1cc(C)c(S(=O)(=O)c2cccc(C)c2C)c(=O)[nH]1", "activity change, negative = growth inhibition": "inactive: 11.1%"},
      {"smiles": "CCOC(=O)C1=C(CC)Nc2ccccc2N=C1NC(=O)c1cccc(S(=O)(=O)N2CCCC2)c1", "activity change, negative = growth inhibition": "inactive: -21.8%"},
      {"smiles": "O=C(CN1CCN(C2CCS(=O)(=O)C2)CC1)N1N=C(c2ccc(Cl)cc2)CC1c1ccco1", "note": "(stereo unspecified)", "Potency": "inconclusive: 23.1 µM [inhibitor, single point]"},
      {"smiles": "CN(C)c1ccc(CNn2cnnc2SCc2ccc(F)cc2)cc1", "Potency": "inconclusive: 20.6 µM [inhibitor, single point]"},
      {"smiles": "Nc1nnc2cc(Br)ccc2n1", "Potency": "inconclusive: 23.1 µM [inhibitor, single point]"},
      {"smiles": "Cc1ccc2nc(NC(=O)C3CC3C)sc2c1", "note": "(stereo unspecified)", "Potency": "inconclusive: 29.1 µM [inhibitor, single point]"},
      {"smiles": "CCCN(C(=O)COC(=O)CCOc1ccccc1)c1c(N)n(Cc2ccccc2)c(=O)[nH]c1=O", "activity change, negative = growth inhibition": "inconclusive: -31.2% [inhibitor]"},
      {"smiles": "COc1ccc(C(=O)N=c2sc3c(C)ccc(OC)c3n2C)cc1OC", "Potency": "active: 5.17 µM"},
      {"smiles": "CCn1c(SCC(N)=O)nc2c(c1=O)C1(CCCC1)Cc1ccccc1-2", "activity change, negative = growth inhibition": "inactive: -16.6%"},
      {"smiles": "COc1ccc(CNC(=O)c2ccc(-c3nc(CS(=O)c4ccc(C)cc4)c(C)o3)cc2)cc1", "note": "(stereo unspecified)", "Potency": "inconclusive: 9.2 µM [inhibitor, partial curve]"},
      {"smiles": "CC1CCN(Cc2nnnn2CCCC(=O)NCCc2cnn(C)c2)CC1", "activity change, negative = growth inhibition": "inactive: 13.8%"},
      {"smiles": "COc1ccc(S(=O)(=O)N(C)C[C@H]2Oc3ccc(NC(=O)C4CCCCC4)cc3C(=O)N([C@H](C)CO)C[C@@H]2C)cc1", "activity change, negative = growth inhibition": "inactive: -22.7%"}
    ]}
  ]
}
